We go through 8 molecules from the supplement of paper PMC12632987.

Whole data set: some 1,800 sequences, median “median log2 fold change of GCK-ALFA target abundance (FLAG IP / Myc IP barcode read proportion)” near 0.14, cut for the lowest 2% near -0.84. This is one part of the list.

T1: TRAF2, Q12933
T1 chain: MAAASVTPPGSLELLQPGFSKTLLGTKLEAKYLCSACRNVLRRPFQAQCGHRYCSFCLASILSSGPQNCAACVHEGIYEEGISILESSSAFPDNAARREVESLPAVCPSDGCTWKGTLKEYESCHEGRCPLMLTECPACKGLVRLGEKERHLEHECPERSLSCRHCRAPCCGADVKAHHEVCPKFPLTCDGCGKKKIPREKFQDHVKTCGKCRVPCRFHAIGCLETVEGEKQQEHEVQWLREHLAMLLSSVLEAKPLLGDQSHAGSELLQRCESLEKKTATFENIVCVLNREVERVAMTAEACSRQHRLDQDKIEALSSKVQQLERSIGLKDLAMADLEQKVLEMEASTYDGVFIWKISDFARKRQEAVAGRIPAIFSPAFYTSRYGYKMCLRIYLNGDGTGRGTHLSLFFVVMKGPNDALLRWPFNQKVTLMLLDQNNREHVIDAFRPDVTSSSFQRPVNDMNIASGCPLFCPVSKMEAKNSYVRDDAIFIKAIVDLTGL

B1: traf2_out_17_162_1632 (protein)
chain: SPLEEKLREYEERLEELEEELKELKKKAEEIEKLSKEELTDLLVEASEKRREALELAEELRELKEKYNDERLDELIERAEEIAEEFQRIANKFYKELEKK
B2: traf2_out_3_89_2280 (protein)
chain: SMEEEEKIKEARENIETWIRGLRKSTRRVAEEMRKEGASLETIKGLIDSSATALLEAFKISLKDKGFDEETIEELVEEAKEELEKIREELKEEAEKAYEE
B3: traf2_out_11_169_844 (protein)
chain: EEREKNRAINDFSLELNDKAKEELRKHAKELAKEAGLDVEEIDKIFEENKGKSFSYIAGKLIEYFTSKGKEEVAKKILEKYEELKEEVNKKATAFIKSLE
B4: traf2_out_17_178_1656 (protein)
chain: DKEEARKKISEATDKLIDLTEETAARLLAILEADGIASPEELAALRRAQRLGSATTVRALMERAVPRSPRSAEVAALLDDFKKKSGELAKEIAEALKKYE
B5: traf2_out_13_95_1091 (protein)
chain: SKEVAEKINKIADEMLDKSLALLEKLLKIAEEKGKAVEEIKEAIDLAEYRSINEAIHKLEELAKKYPEFKEELEATIKEIRAIKREAGRKVAEILKEEKE
B6: traf2_out_12_187_950 (protein)
chain: SVEEELRRAAEEAYRQAVRRLKRHAGEDEEVRRFLEELERLRELWEKHPEIAADLLVAASAIIRYMDLLEEGAPAEEIAAARERAERLLREALERAEALE
B7: traf2_out_1_158_911 (protein)
chain: STEVGLLAASVTSVLDVWAEEAKERGLEEAAALFEELREEVLKLYEENKDSSLEEFAEKVLELIEKYRERAKALDPESRALVDRAFRQIESAVEQVLKLA
B8: traf2_out_5_86_2371 (protein)
chain: EEARRDAISDELTALLLAEYGKIISKLNELGASADVTYLALKYFNRAVSGERTEEARAKLVEKMKAEGFSDEEIKEILELVEREAAKVREARAAAAAAAA

The target of the experiment is T1, TRAF2, Q12933. Description: median log2 fold change of GCK-ALFA target abundance (FLAG IP / Myc IP barcode read proportion) (log2 ratio); each designed protein is fused to an ALFA-tag nanobody in HEK293 cells to bring the named protein to FLAG-tagged glucokinase (GCK); Myc marks an untargeted standard; higher = target protein stabilised (more abundant). The settings on record: target protein: 3xFLAG-MCP-GCK-ALFA reporter; HEK293 landing pad (RPLP). In outline: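 HEK293 landing-pad cells received a recombined binder library fused to the ALFA nanobody and were induced with 2 μg mL^−1 doxycycline, then transfected with a plasmid encoding a FLAG-tagged target and a Myc-tagged standard. Lysates were collected after 48 h for anti-FLAG and anti-Myc immunoprecipitation, and the circular RNA barcodes were reverse transcribed, amplified and sequenced. Target abundance for each binder is the median log2 ratio of FLAG to Myc barcode read proportions. Barcodes had to reach a proportion of at least 10^−7 in both replicates, each binder needed at least 3 barcodes per replicate, a pseudocount of 10^−6 was applied, and the two replicates were pooled.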
With B1, the “median log2 fold change” value worked out at 0.164.

For the molecule B2, the “median log2 fold change” value stood at 0.0329.

In the case of B3, the “median log2 fold change” value amounted to 0.219.

In the case of B4, the “median log2 fold change” value was -0.194.

B5: the “median log2 fold change” value was -0.417.

For B6, the “median log2 fold change” value was found to be 0.0974.

As to B7, the “median log2 fold change” value came out at 0.126.

B8: the “median log2 fold change” value is -0.451.
